Measurements published in PubChem BioAssay (NCATS).
Where “and” joins values, the source holds several entries; their conditions need not be identical. Identical values can stand only once. The inconclusive results got no clear call from the source; some entries with a clear call stand among them for comparison. A potency beside an inconclusive call is a rough fit, not a confirmed value. Calls of active or inactive are those of the source. The call rests on the fitted dose curve; in most records, active means well fitted cell-killing curve with a large enough effect; inconclusive means small, poorly fitted or top-dose-only effect, or effect the other way; inactive means no such curve, though single readings can be large or run the other way.

Assays:
[1] = Viability qHTS for spleen associated tyrosine kinase inhibitor (SYKi) naive MV4-11 cells (AID 1963823); details: MV4-11 AML viability, CellTiter-Glo luminescence, 72 h; series mostly up to 45 µM; further: nearly all actives have a fitted effect of over 40% in size
Outline: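 qHTS, SYK inhibitor-naive MV4-11; 500 cells/well; 72 hr compound exposure, 37 C; CellTiter-Glo added, 10 min RT; luminescence read.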

[2] = Viability qHTS for spleen associated tyrosine kinase inhibitor (SYKi) drug resistant MV4-11 cells (AID 1963824); further: nearly all actives have a fitted effect of over 35% in size
Outline: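 CellTiter-Glo luminescence, read 10 min after reagent addition, reports viability after a 72 hr compound exposure. Cells are an MV4-11 line made resistant to SYK inhibition, seeded at 500 per well onto compound-containing plates.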
Potency means the concentration at half of the fitted maximal effect; tags describe the fitted curve by direction and shape.

| Structure (SMILES) | Potency [1] | Potency [2] |
| --- | --- | --- |
| Cc1cccc(Nc2ccccc2C(=O)O)c1C | inconclusive: 7.5 µM [cytotoxic, partial curve] | inconclusive: 10.6 µM [cytotoxic, partial curve, poor fit] |
| NC(=O)Nc1cc(-c2cccc(F)c2)sc1C(=O)NC1CCCNC1 (centres undefined) | inactive | inconclusive: 0.0092 µM [cytotoxic, full curve, poor fit] |
| Clc1cccc(COc2cncc(N3CCNCC3)n2)c1 | inconclusive: 25.9 µM [cytotoxic, single point] | inconclusive: 25.9 µM [cytotoxic, single point] |
| CC1(C)OC[C@@H](COC(=O)CCc2ccc(OC[C@@H](O)CNCCNC(=O)N3CCOCC3)cc2)O1 | inconclusive: 0.0008 µM [cytotoxic] | inactive |
| CCCCNc1ccc(C(=O)OCCN(CC)CC)cc1 | inconclusive: 9.2 µM [cytotoxic, partial curve] | inconclusive: 14.6 µM [cytotoxic, partial curve, poor fit] |
| COc1cc2nc(=NC(=O)c3cccnc3)n3c(c2cc1OC)NCC3 | inconclusive: 2.91 µM [cytotoxic, partial curve] | inconclusive: 3.66 µM [cytotoxic, partial curve, poor fit] |
| Nc1nc(-c2ccc(Cl)c(Cl)c2)c(-c2ccncc2)s1 | inconclusive: 14.6 µM [cytotoxic, partial curve] | inconclusive: 16.4 µM [cytotoxic, partial curve, poor fit] |
| Cc1ccc(-c2ncc(Cl)cc2-c2ccc(S(C)(=O)=O)cc2)cn1 | inactive and inconclusive: 8.33 µM [cytotoxic, partial curve, poor fit] | inconclusive: 10.5 µM [cytotoxic, single point] |
| C[C@@H]1CC[C@]2(C(=O)O)CC[C@]3(C)C(=CCC4[C@@]5(C)CC[C@H](O)[C@](C)(C(=O)O)C5CC[C@]43C)C2[C@]1(C)O (some centres undefined) | inconclusive: 14.2 µM [cytotoxic, single point] | inconclusive: 11.2 µM [cytotoxic, partial curve, poor fit] |
| Cc1cn2c(N)c(Cl)cc(C(=O)NCC3CCN(CC(C)C)CC3)c2n1 | inconclusive: 13 µM [cytotoxic, single point] | inconclusive: 5.17 µM [cytotoxic, single point] |
| COC(=O)c1[nH]c(=O)c2ccccc2c1-c1ccc[nH]1 | inconclusive: 10.3 µM [cytotoxic, partial curve] | inconclusive: 11.6 µM [cytotoxic, partial curve] |
| CC(=O)O[C@@H]1C[C@]2(C)[C@@]3(CCC4[C@@]5(C)CC[C@H](O[C@@H]6O[C@H](C(=O)O)[C@@H](O)[C@H](OC7OC(CO)C(O)C(O)[C@H]7O[C@@H]7O[C@@H](C)[C@H](O)[C@@H](O)[C@H]7O[C@@H]7OC[C@](O)(CO)[C@H]7O)[C@H]6OC6OC(CO)C(O)C(O)C6O)C(C)(C)C5CC[C@]42C)OC[C@@]12CCC(C)(C)CC23 (some centres undefined) | inconclusive: 4.36 µM [cytotoxic, single point] | inconclusive: 2.75 µM [cytotoxic, partial curve, poor fit] |
| CN(C)C(=O)Nc1cc(-c2ccccc2)ccc1N(C)C | inconclusive: 29.1 µM [cytotoxic, single point] | inconclusive: 18.4 µM [cytotoxic, single point] |
| COc1cc2occc2c(O[C@@H]2O[C@H](CO)[C@@H](O)[C@H](O)[C@H]2O)c1CCC(=O)O | inactive | inactive |
| COC(=O)CCc1ccc(OCC(O)CNC(C)C)cc1 (centres undefined) | inactive and inconclusive: 20.6 µM [cytotoxic, single point] | inconclusive: 25.9 µM [cytotoxic, single point] |
| CC1(C)OC(=O)C=C[C@@]2(C)C1CC(=O)[C@]1(C)C2CC[C@@]2(C)[C@H](c3ccoc3)OC(=O)[C@H]3O[C@]321 (some centres undefined) | inconclusive: 8.93 µM [cytotoxic, partial curve, poor fit] | inconclusive: 6.32 µM [cytotoxic, partial curve] |
| OC[C@@]1(O)CO[C@@H](OC[C@H]2O[C@@H](Oc3c[nH]c4ccccc34)[C@H](O)[C@@H](O)[C@@H]2O)[C@@H]1O | inactive | inconclusive: 8.93 µM [cytotoxic, partial curve, poor fit] |
